According to article PMC6464128:
These are yes or no findings as the source states them, for the method shown. For some assays here: In cells and extracts the contact can be indirect. Some entries that bind do so weakly or less than the wild type. Tags and fused reporters may be left off the sequences shown. One block for each molecule: values may come before it.

Sequences of proteins named here, by UniProt entry; tags and fusion partners are left off.
UniProt P33993: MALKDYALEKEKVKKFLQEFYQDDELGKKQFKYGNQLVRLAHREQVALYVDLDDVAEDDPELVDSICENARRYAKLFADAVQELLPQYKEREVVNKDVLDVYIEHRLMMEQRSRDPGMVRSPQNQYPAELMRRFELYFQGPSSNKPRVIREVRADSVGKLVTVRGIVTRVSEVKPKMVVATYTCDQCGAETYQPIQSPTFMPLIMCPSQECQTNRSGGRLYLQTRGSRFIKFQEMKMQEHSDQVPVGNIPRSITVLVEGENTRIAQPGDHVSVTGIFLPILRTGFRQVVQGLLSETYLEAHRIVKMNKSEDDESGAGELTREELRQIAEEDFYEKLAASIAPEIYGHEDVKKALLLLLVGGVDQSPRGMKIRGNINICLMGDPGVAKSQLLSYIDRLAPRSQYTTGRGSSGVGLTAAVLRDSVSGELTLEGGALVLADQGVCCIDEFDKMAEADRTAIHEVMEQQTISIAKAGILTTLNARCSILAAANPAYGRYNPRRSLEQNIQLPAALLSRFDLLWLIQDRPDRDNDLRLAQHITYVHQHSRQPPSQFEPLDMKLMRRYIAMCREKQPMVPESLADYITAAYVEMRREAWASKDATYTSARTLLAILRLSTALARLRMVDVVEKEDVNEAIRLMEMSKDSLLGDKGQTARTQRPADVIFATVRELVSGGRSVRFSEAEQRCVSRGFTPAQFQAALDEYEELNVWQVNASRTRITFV
UniProt P49736: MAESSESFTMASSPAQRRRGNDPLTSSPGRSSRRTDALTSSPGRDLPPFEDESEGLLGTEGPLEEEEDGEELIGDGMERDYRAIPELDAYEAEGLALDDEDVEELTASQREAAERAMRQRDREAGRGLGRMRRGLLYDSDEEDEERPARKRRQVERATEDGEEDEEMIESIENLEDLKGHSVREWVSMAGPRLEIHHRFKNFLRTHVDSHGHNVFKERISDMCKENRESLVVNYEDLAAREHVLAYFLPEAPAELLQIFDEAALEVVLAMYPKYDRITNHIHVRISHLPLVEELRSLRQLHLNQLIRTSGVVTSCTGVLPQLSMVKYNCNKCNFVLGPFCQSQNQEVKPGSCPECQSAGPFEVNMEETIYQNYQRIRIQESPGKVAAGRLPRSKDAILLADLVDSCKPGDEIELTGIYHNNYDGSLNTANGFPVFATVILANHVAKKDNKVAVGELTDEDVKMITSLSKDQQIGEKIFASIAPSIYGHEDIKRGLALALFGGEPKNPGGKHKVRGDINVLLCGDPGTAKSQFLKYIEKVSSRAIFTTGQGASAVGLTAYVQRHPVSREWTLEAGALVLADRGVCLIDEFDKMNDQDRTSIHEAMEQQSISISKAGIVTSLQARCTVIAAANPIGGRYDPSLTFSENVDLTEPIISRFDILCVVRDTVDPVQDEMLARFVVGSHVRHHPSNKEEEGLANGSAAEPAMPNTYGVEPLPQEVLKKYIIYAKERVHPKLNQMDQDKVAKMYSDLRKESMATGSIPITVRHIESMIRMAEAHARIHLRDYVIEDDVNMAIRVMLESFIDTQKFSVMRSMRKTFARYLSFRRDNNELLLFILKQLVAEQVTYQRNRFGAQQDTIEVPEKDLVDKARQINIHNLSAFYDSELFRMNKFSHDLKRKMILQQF

Key:
[1] = target: T1, TEN1, yeast two-hybrid fusion (human) (UniProt Q86WV5); assay: two-hybrid; Matchmaker GAL4 system; mating of S. cerevisiae Y187 (pGBKT7) and AH109 (pGADT7); diploids from DDO spotted on QDO (high stringency) or TDO (less stringent) medium, 30°C, growth recorded after 3-4 d
T1 sequence: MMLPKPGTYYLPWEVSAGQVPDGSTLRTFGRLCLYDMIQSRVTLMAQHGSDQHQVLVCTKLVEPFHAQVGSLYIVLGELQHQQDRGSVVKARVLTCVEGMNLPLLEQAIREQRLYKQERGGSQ

[2] = target: T2, STN1, yeast two-hybrid fusion (human) (UniProt Q9H668); assay: as above
T2 sequence: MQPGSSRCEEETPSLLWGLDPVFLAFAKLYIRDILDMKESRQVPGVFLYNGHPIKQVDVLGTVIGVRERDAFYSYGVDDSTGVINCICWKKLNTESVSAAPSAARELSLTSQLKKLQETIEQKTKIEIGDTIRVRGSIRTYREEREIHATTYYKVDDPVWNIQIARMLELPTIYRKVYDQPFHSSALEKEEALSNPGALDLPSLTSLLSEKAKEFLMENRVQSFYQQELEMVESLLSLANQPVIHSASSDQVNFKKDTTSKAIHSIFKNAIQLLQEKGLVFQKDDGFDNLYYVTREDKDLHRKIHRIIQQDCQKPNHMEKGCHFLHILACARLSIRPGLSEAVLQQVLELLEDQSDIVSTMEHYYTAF

Flag-tagged STN1 (human) = target: T3, Flag-tagged STN1 (human) (UniProt Q9H668); assay: co-IP; HEK 293T transfected with HA-CTC1, Flag-STN1 and untagged TEN1, individually or in combination; nuclease (Benzonase)-treated whole cell lysates; IP with anti-Flag or anti-HA agarose overnight at 4°C; endogenous partners detected by Western blot; also after HU treatment (no significant change)
T3 sequence: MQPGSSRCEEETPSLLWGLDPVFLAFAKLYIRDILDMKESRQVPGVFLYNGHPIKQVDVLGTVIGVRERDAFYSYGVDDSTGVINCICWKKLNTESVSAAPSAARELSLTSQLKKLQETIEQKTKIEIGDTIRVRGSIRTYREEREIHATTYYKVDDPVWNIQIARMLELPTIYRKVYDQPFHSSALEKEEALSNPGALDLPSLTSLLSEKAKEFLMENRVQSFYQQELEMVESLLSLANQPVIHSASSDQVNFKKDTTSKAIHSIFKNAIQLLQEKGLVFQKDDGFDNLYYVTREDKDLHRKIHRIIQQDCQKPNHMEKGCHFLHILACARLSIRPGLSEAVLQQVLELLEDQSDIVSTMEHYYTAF

[3] = target: T4, CTC1, yeast two-hybrid fusion (human) (UniProt Q2NKJ3); assay: two-hybrid; Matchmaker GAL4 system; mating of S. cerevisiae Y187 (pGBKT7) and AH109 (pGADT7); diploids from DDO spotted on QDO (high stringency) or TDO (less stringent) medium, 30°C, growth recorded after 3-4 d
T4 sequence: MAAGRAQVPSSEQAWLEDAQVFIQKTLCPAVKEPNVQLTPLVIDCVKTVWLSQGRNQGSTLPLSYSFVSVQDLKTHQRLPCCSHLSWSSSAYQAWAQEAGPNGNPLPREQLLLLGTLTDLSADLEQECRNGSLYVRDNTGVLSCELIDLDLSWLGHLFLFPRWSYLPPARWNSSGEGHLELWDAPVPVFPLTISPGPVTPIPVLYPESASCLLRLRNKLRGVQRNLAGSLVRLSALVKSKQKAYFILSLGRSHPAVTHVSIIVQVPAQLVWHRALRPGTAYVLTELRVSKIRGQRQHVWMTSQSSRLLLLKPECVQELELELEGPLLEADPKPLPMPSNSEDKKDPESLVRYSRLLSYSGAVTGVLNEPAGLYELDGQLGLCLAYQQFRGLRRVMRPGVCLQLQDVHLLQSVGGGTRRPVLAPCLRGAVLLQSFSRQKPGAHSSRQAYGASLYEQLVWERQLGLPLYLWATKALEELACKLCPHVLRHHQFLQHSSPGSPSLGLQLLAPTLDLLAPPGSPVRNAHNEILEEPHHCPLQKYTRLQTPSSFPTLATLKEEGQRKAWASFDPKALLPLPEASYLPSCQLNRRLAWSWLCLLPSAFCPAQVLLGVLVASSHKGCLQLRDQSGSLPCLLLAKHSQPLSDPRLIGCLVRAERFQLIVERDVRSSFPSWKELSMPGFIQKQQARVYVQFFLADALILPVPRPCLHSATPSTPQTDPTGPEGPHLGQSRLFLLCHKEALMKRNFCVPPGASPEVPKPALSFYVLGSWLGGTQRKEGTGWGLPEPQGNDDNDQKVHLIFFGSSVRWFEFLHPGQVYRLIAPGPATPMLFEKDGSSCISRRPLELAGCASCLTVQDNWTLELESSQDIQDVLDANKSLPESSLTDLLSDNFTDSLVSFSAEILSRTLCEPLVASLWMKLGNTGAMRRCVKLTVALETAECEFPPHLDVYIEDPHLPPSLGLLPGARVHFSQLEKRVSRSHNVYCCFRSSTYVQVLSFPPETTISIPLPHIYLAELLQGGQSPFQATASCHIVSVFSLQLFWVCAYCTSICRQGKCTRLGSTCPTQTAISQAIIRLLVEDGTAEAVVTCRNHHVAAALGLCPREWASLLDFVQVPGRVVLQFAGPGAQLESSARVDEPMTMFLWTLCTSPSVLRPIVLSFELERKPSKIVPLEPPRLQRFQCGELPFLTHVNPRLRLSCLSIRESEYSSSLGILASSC

[4] = target: MCM7 (endogenous) (human (endogenous in HEK 293T)) (UniProt P33993); assay: co-IP; reciprocal: lysates from HEK 293T cells transfected with plasmids expressing CST; IP with MCM7 antibody or IgG control; STN1 detected by blot

Molecule: MCM2, yeast two-hybrid fusion (from UniProt P49736 1-904)
- binding [1]: no binding

B2: AND-1 (endogenous) (protein, UniProt O75717 1-1129)
chain: MPATRKPMRYGHTEGHTEVCFDDSGSFIVTCGSDGDVRIWEDLDDDDPKFINVGEKAYSCALKSGKLVTAVSNNTIQVHTFPEGVPDGILTRFTTNANHVVFNGDGTKIAAGSSDFLVKIVDVMDSSQQKTFRGHDAPVLSLSFDPKDIFLASASCDGSVRVWQISDQTCAISWPLLQKCNDVINAKSICRLAWQPKSGKLLAIPVEKSVKLYRRESWSHQFDLSDNFISQTLNIVTWSPCGQYLAAGSINGLIIVWNVETKDCMERVKHEKGYAICGLAWHPTCGRISYTDAEGNLGLLENVCDPSGKTSSSKVSSRVEKDYNDLFDGDDMSNAGDFLNDNAVEIPSFSKGIINDDEDDEDLMMASGRPRQRSHILEDDENSVDISMLKTGSSLLKEEEEDGQEGSIHNLPLVTSQRPFYDGPMPTPRQKPFQSGSTPLHLTHRFMVWNSIGIIRCYNDEQDNAIDVEFHDTSIHHATHLSNTLNYTIADLSHEAILLACESTDELASKLHCLHFSSWDSSKEWIIDLPQNEDIEAICLGQGWAAAATSALLLRLFTIGGVQKEVFSLAGPVVSMAGHGEQLFIVYHRGTGFDGDQCLGVQLLELGKKKKQILHGDPLPLTRKSYLAWIGFSAEGTPCYVDSEGIVRMLNRGLGNTWTPICNTREHCKGKSDHYWVVGIHENPQQLRCIPCKGSRFPPTLPRPAVAILSFKLPYCQIATEKGQMEEQFWRSVIFHNHLDYLAKNGYEYEESTKNQATKEQQELLMKMLALSCKLEREFRCVELADLMTQNAVNLAIKYASRSRKLILAQKLSELAVEKAAELTATQVEEEEEEEDFRKKLNAGYSNTATEWSQPRFRNQVEEDAEDSGEADDEEKPEIHKPGQNSFSKSTNSSDVSAKSGAVTFSSQGRVNPFKVSASSKEPAMSMNSARSTNILDNMGKSSKKSTALSRTTNNEKSPIIKPLIPKPKPKQASAASYFQKRNSQTNKTEEVKEENLKNVLSETPAICPPQNTENQRPKTGFQMWLEENRSNILSDNPDFSDEADIIKEGMIRFRVLSTEERKVWANKAKGETASEGTEAKKRKRVVDESDETENQEEKAKENLNLSKKQKPLDFSTNQKLSAFAFKQE
- binding (Flag-tagged STN1 (human)): binds

B4: Flag-tagged STN1 (protein, UniProt Q9H668 1-368)
chain: MQPGSSRCEEETPSLLWGLDPVFLAFAKLYIRDILDMKESRQVPGVFLYNGHPIKQVDVLGTVIGVRERDAFYSYGVDDSTGVINCICWKKLNTESVSAAPSAARELSLTSQLKKLQETIEQKTKIEIGDTIRVRGSIRTYREEREIHATTYYKVDDPVWNIQIARMLELPTIYRKVYDQPFHSSALEKEEALSNPGALDLPSLTSLLSEKAKEFLMENRVQSFYQQELEMVESLLSLANQPVIHSASSDQVNFKKDTTSKAIHSIFKNAIQLLQEKGLVFQKDDGFDNLYYVTREDKDLHRKIHRIIQQDCQKPNHMEKGCHFLHILACARLSIRPGLSEAVLQQVLELLEDQSDIVSTMEHYYTAF
- binding [4]: binds

Now from value to molecule:

- binding [2]: binds
B1: TEN1, yeast two-hybrid fusion (protein, UniProt Q86WV5 1-123)
chain: MMLPKPGTYYLPWEVSAGQVPDGSTLRTFGRLCLYDMIQSRVTLMAQHGSDQHQVLVCTKLVEPFHAQVGSLYIVLGELQHQQDRGSVVKARVLTCVEGMNLPLLEQAIREQRLYKQERGGSQ

- binding [3]: binds
B3: STN1, yeast two-hybrid fusion (protein, UniProt Q9H668 1-368)
chain: MQPGSSRCEEETPSLLWGLDPVFLAFAKLYIRDILDMKESRQVPGVFLYNGHPIKQVDVLGTVIGVRERDAFYSYGVDDSTGVINCICWKKLNTESVSAAPSAARELSLTSQLKKLQETIEQKTKIEIGDTIRVRGSIRTYREEREIHATTYYKVDDPVWNIQIARMLELPTIYRKVYDQPFHSSALEKEEALSNPGALDLPSLTSLLSEKAKEFLMENRVQSFYQQELEMVESLLSLANQPVIHSASSDQVNFKKDTTSKAIHSIFKNAIQLLQEKGLVFQKDDGFDNLYYVTREDKDLHRKIHRIIQQDCQKPNHMEKGCHFLHILACARLSIRPGLSEAVLQQVLELLEDQSDIVSTMEHYYTAF
